The source of these data is paper PMC3398040.

No constants are given. Whether binding was seen depends on the method and setting. In cells and extracts the contact can be indirect. Some entries that bind do so weakly or less than the wild type. Where a sequence is shown, tags or fusion partners need not be part of it.

The target in assay [1] is T1, HIS-tagged Ddi1 (^HISDdi1) (yeast) (UniProt P40087).
T1 sequence: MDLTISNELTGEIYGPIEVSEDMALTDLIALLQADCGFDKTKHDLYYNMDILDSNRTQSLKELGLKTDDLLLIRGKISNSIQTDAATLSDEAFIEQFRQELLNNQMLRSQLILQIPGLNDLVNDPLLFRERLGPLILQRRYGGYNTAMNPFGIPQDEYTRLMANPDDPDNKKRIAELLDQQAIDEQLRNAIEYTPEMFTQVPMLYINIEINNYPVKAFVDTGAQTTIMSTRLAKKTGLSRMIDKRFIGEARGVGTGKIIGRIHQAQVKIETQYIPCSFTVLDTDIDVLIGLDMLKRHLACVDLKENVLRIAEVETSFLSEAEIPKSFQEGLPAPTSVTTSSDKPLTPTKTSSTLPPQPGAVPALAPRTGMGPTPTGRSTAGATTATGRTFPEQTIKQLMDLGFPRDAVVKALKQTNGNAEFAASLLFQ
Description: pull-down; HIS-Ddi1 or HIS-ΔΔDdi1 on Ni beads incubated with a constant amount of GFP-Ufo1 yeast extract and x3 the amount of GST-Rpn1 lysate (Figure 5B); only the target purified.

Assay [2] deals with T2, HIS-tagged core of Ddi1 without the UbL and UbA domains (^HISΔΔDdi1) (yeast) (UniProt P40087).
T2 sequence: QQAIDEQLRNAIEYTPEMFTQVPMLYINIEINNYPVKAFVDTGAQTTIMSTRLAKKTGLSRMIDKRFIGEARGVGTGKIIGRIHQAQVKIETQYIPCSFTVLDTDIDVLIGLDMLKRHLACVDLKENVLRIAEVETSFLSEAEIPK
The assay is described as above.

The target in assay [3] is T1, HIS-tagged Ddi1 (^HISDdi1) (yeast). Description: pull-down; HIS-Ddi1 on Ni beads incubated with one lysate or extract alone (GST-Rpn1 or GST-Ufo1 bacterial lysate, GFP-Ho or GFP-Ufo1 yeast extract); washed with 2.5% Triton X100 and 100 mM imidazole (Figure 5A lanes 4-6, Figure 5B lanes 3 and 4); only the target purified.
The target in assay [4] is T3, GST-tagged full-length Ddi1 (^GSTFL-Ddi1) (yeast) (UniProt P40087).
T3 sequence: T1 sequence
Description: pull-down; recombinant GST fusion on GSH beads incubated with yeast extract, 4°C, 1-2 h, extract buffer (50 mM Tris-Cl pH 7.5, 150 mM NaCl, 5 mM EDTA, 0.1% NP40); washed with 2.5% Triton X100; Western blot (Figures 1A, 1B, 3A, 5E and 5F, extract alone); only the target purified.

Assay [5] has as its target T4, GST-tagged full-length Ufo1 (^GSTFL-Ufo1) (yeast) (UniProt Q04511).
T4 sequence: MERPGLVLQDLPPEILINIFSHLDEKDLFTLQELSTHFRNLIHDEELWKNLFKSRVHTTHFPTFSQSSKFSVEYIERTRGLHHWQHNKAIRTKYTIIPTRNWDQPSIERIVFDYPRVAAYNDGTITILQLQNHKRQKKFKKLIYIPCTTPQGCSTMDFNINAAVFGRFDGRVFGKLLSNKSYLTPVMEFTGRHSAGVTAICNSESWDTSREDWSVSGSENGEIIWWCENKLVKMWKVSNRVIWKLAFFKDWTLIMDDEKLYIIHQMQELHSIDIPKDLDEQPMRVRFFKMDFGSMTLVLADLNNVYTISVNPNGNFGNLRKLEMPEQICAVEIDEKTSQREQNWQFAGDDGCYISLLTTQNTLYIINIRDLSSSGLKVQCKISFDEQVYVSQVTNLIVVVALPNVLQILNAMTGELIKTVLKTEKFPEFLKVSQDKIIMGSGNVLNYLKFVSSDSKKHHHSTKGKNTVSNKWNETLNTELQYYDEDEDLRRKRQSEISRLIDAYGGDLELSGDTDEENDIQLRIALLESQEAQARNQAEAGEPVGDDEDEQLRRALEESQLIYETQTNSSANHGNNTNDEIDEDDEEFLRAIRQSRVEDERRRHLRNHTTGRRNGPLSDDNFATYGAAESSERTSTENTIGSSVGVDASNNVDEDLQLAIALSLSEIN
The assay is described as above.

In assay [6] the target is T1, HIS-tagged Ddi1 (^HISDdi1) (yeast). As to the kind of experiment: condition: only with GST-Rpn1 lysate at x1 or x2 as competitor; pull-down; HIS-Ddi1 on Ni beads incubated with Ufo1 (GST-Ufo1 lysate or GFP-Ufo1 extract) together with GST-Rpn1 lysate at x1 or x2, no Ho (Figure 5A lane 7, Figure 5B lanes 5 and 6, Figure 5C); only the target purified.

B1: GFP-tagged full-length Ufo1 (^GFPFL-Ufo1) (protein, UniProt Q04511 1-668)
chain: T4 sequence
modifications: ubiquitylated as produced in yeast (sites not given)
For the molecule B1, the binding result in assay [1] is “binds”; in assay [2], “binds weakly”; in assay [3] it was “binds”; in assay [4], “binds”; in assay [5], “binds”; in assay [6], “no binding”.
